Where “and” joins values, the source holds several entries; their conditions need not be identical. Identical values can stand only once.
Columns and labels:
[1] = target: each FcγR; assay: SPR (Biacore), relative binding
[2] = target: FcγR other than FcγRIa; assay: SPR (Biacore), relative binding

FcγR-binding activity relative to GpH7-A5/GpH7-B3/GpL16-k0 [1]	FcγR-binding activity relative to GpH7-A5/GpH7-B3/GpL16-k0 [2] [%]	binding activity relative to GpH7-G1d/GpL16-k0 [1] [%]	Binder
0.2 fold and 0.25 fold	–	–	GpH7-A5/GpH7-B12/GpL16-k0 (antibody, human IgG1, kappa) heavy 1: QVQLVQSGAEVKKPGASVTVSCKASGYTFTDYEMHWIRQPPGEGLEWIGAIDPKTGDTAYSESFQDRVTLTADKSTSTAYMELSSLTSEDTAVYYCTRFYSYTYWGQGTLVTVSS[human IgG1 constant region with D356K H435R (EU numbers) not spelt out] heavy 2: QVQLVQSGAEVKKPGASVTVSCKASGYTFTDYEMHWIRQPPGEGLEWIGAIDPKTGDTAYSESFQDRVTLTADKSTSTAYMELSSLTSEDTAVYYCTRFYSYTYWGQGTLVTVSS[human IgG1 constant region with P329R K439E (EU numbers) not spelt out] light: DIVMTQSPLSLPVTPGEPASISCQASESLVHSNRNTYLHWYLQKPGQSPQLLIYKVSNRFSGVPDRFSGSGSGTDFTLKISRVEAEDVGVYYCSQNTHVPPTFGQGTKVEIERTVAAPSVFIFPPSDEQLKSGTASVVCLLNNFYPREAKVQWKVDNALQSGNSQESVTEQDSKDSTYSLSSTLTLSKADYEKHKVYACEVTHQGLSSPVTKSFNRGEC
–	> 50	–	GpH7-A5/GpH7-B15/GpL16-k0 (antibody, human IgG1, kappa) heavy 1: QVQLVQSGAEVKKPGASVTVSCKASGYTFTDYEMHWIRQPPGEGLEWIGAIDPKTGDTAYSESFQDRVTLTADKSTSTAYMELSSLTSEDTAVYYCTRFYSYTYWGQGTLVTVSS[human IgG1 constant region with D356K H435R (EU numbers) not spelt out] heavy 2: QVQLVQSGAEVKKPGASVTVSCKASGYTFTDYEMHWIRQPPGEGLEWIGAIDPKTGDTAYSESFQDRVTLTADKSTSTAYMELSSLTSEDTAVYYCTRFYSYTYWGQGTLVTVSS[human IgG1 constant region with P329E K439E (EU numbers) not spelt out] light: DIVMTQSPLSLPVTPGEPASISCQASESLVHSNRNTYLHWYLQKPGQSPQLLIYKVSNRFSGVPDRFSGSGSGTDFTLKISRVEAEDVGVYYCSQNTHVPPTFGQGTKVEIERTVAAPSVFIFPPSDEQLKSGTASVVCLLNNFYPREAKVQWKVDNALQSGNSQESVTEQDSKDSTYSLSSTLTLSKADYEKHKVYACEVTHQGLSSPVTKSFNRGEC
–	–	> 80	GpH7-B3/GpL16-k0 (antibody, human IgG1, kappa) heavy: QVQLVQSGAEVKKPGASVTVSCKASGYTFTDYEMHWIRQPPGEGLEWIGAIDPKTGDTAYSESFQDRVTLTADKSTSTAYMELSSLTSEDTAVYYCTRFYSYTYWGQGTLVTVSS[human IgG1 constant region with K439E (EU numbers) not spelt out] light: DIVMTQSPLSLPVTPGEPASISCQASESLVHSNRNTYLHWYLQKPGQSPQLLIYKVSNRFSGVPDRFSGSGSGTDFTLKISRVEAEDVGVYYCSQNTHVPPTFGQGTKVEIERTVAAPSVFIFPPSDEQLKSGTASVVCLLNNFYPREAKVQWKVDNALQSGNSQESVTEQDSKDSTYSLSSTLTLSKADYEKHKVYACEVTHQGLSSPVTKSFNRGEC
0.2 fold and 0.25 fold	–	–	GpH7-A5/GpH7-B13/GpL16-k0 (antibody, human IgG1, kappa) heavy 1: QVQLVQSGAEVKKPGASVTVSCKASGYTFTDYEMHWIRQPPGEGLEWIGAIDPKTGDTAYSESFQDRVTLTADKSTSTAYMELSSLTSEDTAVYYCTRFYSYTYWGQGTLVTVSS[human IgG1 constant region with D356K H435R (EU numbers) not spelt out] heavy 2: QVQLVQSGAEVKKPGASVTVSCKASGYTFTDYEMHWIRQPPGEGLEWIGAIDPKTGDTAYSESFQDRVTLTADKSTSTAYMELSSLTSEDTAVYYCTRFYSYTYWGQGTLVTVSS[human IgG1 constant region with P329K K439E (EU numbers) not spelt out] light: DIVMTQSPLSLPVTPGEPASISCQASESLVHSNRNTYLHWYLQKPGQSPQLLIYKVSNRFSGVPDRFSGSGSGTDFTLKISRVEAEDVGVYYCSQNTHVPPTFGQGTKVEIERTVAAPSVFIFPPSDEQLKSGTASVVCLLNNFYPREAKVQWKVDNALQSGNSQESVTEQDSKDSTYSLSSTLTLSKADYEKHKVYACEVTHQGLSSPVTKSFNRGEC
–	> 50	–	GpH7-A5/GpH7-B14/GpL16-k0 (antibody, human IgG1, kappa) heavy 1: QVQLVQSGAEVKKPGASVTVSCKASGYTFTDYEMHWIRQPPGEGLEWIGAIDPKTGDTAYSESFQDRVTLTADKSTSTAYMELSSLTSEDTAVYYCTRFYSYTYWGQGTLVTVSS[human IgG1 constant region with D356K H435R (EU numbers) not spelt out] heavy 2: QVQLVQSGAEVKKPGASVTVSCKASGYTFTDYEMHWIRQPPGEGLEWIGAIDPKTGDTAYSESFQDRVTLTADKSTSTAYMELSSLTSEDTAVYYCTRFYSYTYWGQGTLVTVSS[human IgG1 constant region with P329D K439E (EU numbers) not spelt out] light: DIVMTQSPLSLPVTPGEPASISCQASESLVHSNRNTYLHWYLQKPGQSPQLLIYKVSNRFSGVPDRFSGSGSGTDFTLKISRVEAEDVGVYYCSQNTHVPPTFGQGTKVEIERTVAAPSVFIFPPSDEQLKSGTASVVCLLNNFYPREAKVQWKVDNALQSGNSQESVTEQDSKDSTYSLSSTLTLSKADYEKHKVYACEVTHQGLSSPVTKSFNRGEC
–	–	> 80	GpH7-A5/GpL16-k0 (antibody, human IgG1, kappa) heavy: QVQLVQSGAEVKKPGASVTVSCKASGYTFTDYEMHWIRQPPGEGLEWIGAIDPKTGDTAYSESFQDRVTLTADKSTSTAYMELSSLTSEDTAVYYCTRFYSYTYWGQGTLVTVSS[human IgG1 constant region with D356K H435R (EU numbers) not spelt out] light: DIVMTQSPLSLPVTPGEPASISCQASESLVHSNRNTYLHWYLQKPGQSPQLLIYKVSNRFSGVPDRFSGSGSGTDFTLKISRVEAEDVGVYYCSQNTHVPPTFGQGTKVEIERTVAAPSVFIFPPSDEQLKSGTASVVCLLNNFYPREAKVQWKVDNALQSGNSQESVTEQDSKDSTYSLSSTLTLSKADYEKHKVYACEVTHQGLSSPVTKSFNRGEC
